Measured values published in the antibiotic and cytotoxicity screens of Wong et al. (2023).
This is one part of the list.

test system: S. aureus RN4220; assay: growth inhibition call (relative growth <= 0.2); conditions: 50 µM

Growth inhibition call, inactive:
C[C@H](CO)N1C[C@H](C)[C@H](CN(C)S(C)(=O)=O)Oc2ncc(C#Cc3cccnc3)cc2C1=O, COc1ccc(NC(=O)N(C)C[C@H]2Oc3cc(C#CCN(C)C)ccc3S(=O)(=O)N([C@H](C)CO)C[C@H]2C)cc1, C[C@@H]1CCCCO[C@@H](CN(C)Cc2ccc(C(=O)O)cc2)[C@@H](C)CN([C@@H](C)CO)C(=O)c2cc(NC(=O)Nc3cccc4ccccc34)ccc2O1, COC(=O)C(CC#Cc1ccc2c(c1)[C@]1(C(=O)N2)[C@H](c2ccccc2OCCO)N2[C@H](c3ccccc3)[C@H](c3ccccc3)OC(=O)[C@H]2[C@@H]1C(=O)N1CCc2cc(OC)c(OC)cc2C1)C(=O)OC, CC1C(=O)CCC1=O, C[C@@H]1CN([C@H](C)CO)C(=O)Cc2cc(NC(=O)C3CCCCC3)ccc2O[C@@H]1CN(C)S(=O)(=O)c1cn(C)cn1, O=C(C[C@@H]1CC[C@@H](NC(=O)c2cnccn2)[C@@H](CO)O1)NCc1ccccc1F, C[C@@H]1CN([C@H](C)CO)C(=O)Cc2cc(NC(=O)Cc3cn(C)c4ccccc34)ccc2O[C@@H]1CN(C)Cc1ccc(-c2ccccc2)cc1, COc1ccc(NC(=O)N(C)C[C@@H]2OCCCC[C@@H](C)Oc3ccc(NC(=O)Nc4ccccc4)cc3C(=O)N([C@H](C)CO)C[C@H]2C)cc1, CCS(=O)(=O)Nc1ccc2c(c1)C(=O)N(C)C[C@H](OC)[C@H](C)CN(CCC(F)(F)F)[C@H](C)CO2, CO[C@@H]1CN(C)C(=O)c2ccc(NS(C)(=O)=O)cc2OC[C@H](C)N(C(=O)c2ccc3c(c2)OCO3)C[C@@H]1C, C[C@@H]1CN([C@H](C)CO)C(=O)Cc2cc(NC(=O)Cn3cnnn3)ccc2O[C@H]1CN(C)S(=O)(=O)c1ccccc1, C[C@@H]1CN([C@@H](C)CO)C(=O)c2ccccc2-c2ccccc2CO[C@@H]1CN(C)C(=O)Nc1ccccc1C(F)(F)F, C[C@@H]1CN([C@@H](C)CO)C(=O)c2cccc(NS(=O)(=O)c3ccc(F)cc3)c2O[C@H]1CN(C)S(=O)(=O)c1cn(C)cn1, CC1=C(/C=C/C(C)=C/C=C/C(C)=C/CO)C(C)(C)CCC1, C[C@@H]1CN([C@H](C)CO)C(=O)c2cc(NC(=O)Cn3cnnn3)ccc2O[C@H]1CN(C)C(=O)Nc1cccc2ccccc12, C[C@@H]1CN([C@H](C)CO)C(=O)c2cc(NC(=O)CCN3CCOCC3)ccc2O[C@H]1CN(C)C(=O)Nc1ccc2c(c1)OCO2, COc1ccc([Si](C)(C)[C@@H]2[C@@H](CC(=O)N(CCO)Cc3ccccc3)O[C@]3(C(=O)N(Cc4ccc(N5C(=O)c6cccc7cccc5c67)cc4)c4ccccc43)[C@H]2C)cc1, CC(C)NC(=O)N(C)C[C@@H]1Oc2ccc(NC(=O)NC3CCCCC3)cc2C(=O)N([C@H](C)CO)C[C@@H]1C, COCC#Cc1ccc2c(c1)O[C@@H](CN(C)S(=O)(=O)c1cccc(F)c1)[C@H](C)CN([C@@H](C)CO)S2(=O)=O, C[C@@H]1CN([C@H](C)CO)C(=O)c2cc(C#Cc3ccc(F)cc3)cnc2O[C@H]1CN(C)CC1CCOCC1, COc1cccc(NC(=O)N2C[C@H](O)COC[C@H]3O[C@H](CC(=O)NC4Cc5ccccc5C4)CC[C@@H]32)c1, CN(C)CCCNC(=O)C[C@@H]1C=C[C@@H](NS(=O)(=O)c2ccccc2)[C@@H](CO)O1, C[C@@H]1CN([C@H](C)CO)C(=O)c2cc(NC(=O)CCC(F)(F)F)ccc2O[C@@H](C)CCCCO[C@@H]1CN(C)Cc1ccncc1
